# Among all 310,000 compounds or so, about 14,000 (4.5%) showed an effect of 50% or more. The effect is printed as a negative number. The list shows a part of the results.
# Target: human ether-à-go-go-related gene (hERG) potassium channel (human, UniProt Q12809)
# Test: primary screen, population patch clamp on CHO cells stably expressing hERG
# 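Also: peak tail current of the secondary pulse compared with the same well before compound.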
# Chain of human ether-à-go-go-related gene (hERG) potassium channel (Q12809 whole entry, looked up): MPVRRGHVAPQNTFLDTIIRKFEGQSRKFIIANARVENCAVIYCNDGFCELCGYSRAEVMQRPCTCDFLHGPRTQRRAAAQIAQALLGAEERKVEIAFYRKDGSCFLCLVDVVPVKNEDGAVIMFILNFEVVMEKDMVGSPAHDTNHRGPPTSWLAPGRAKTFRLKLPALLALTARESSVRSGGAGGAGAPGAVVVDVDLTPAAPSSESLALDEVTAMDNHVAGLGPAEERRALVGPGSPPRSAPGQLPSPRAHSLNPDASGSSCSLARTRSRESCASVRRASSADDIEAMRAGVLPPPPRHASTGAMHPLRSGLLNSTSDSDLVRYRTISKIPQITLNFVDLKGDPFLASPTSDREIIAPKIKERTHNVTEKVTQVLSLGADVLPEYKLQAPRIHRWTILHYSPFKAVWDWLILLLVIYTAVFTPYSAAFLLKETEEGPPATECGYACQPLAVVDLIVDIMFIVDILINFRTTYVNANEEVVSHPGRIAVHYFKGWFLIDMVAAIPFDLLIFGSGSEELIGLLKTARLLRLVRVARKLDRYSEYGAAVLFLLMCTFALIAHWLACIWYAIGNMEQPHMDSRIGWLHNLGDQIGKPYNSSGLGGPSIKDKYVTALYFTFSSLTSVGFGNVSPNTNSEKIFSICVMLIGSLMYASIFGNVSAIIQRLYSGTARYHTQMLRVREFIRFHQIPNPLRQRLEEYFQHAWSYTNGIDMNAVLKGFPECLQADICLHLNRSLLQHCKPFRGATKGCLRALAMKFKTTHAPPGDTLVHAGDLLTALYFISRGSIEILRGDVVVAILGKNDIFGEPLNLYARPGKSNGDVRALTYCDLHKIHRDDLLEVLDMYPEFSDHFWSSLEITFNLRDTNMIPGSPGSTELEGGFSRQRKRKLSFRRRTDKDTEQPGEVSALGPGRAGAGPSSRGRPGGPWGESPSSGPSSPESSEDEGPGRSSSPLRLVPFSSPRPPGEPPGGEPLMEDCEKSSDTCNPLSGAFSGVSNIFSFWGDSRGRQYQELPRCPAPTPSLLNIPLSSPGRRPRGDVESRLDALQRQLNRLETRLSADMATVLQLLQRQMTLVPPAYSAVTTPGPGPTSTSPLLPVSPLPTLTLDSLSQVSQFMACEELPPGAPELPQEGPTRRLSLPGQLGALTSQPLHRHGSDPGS
row,SMILES,"hERG current change (%, negative = inhibition) at 10uM [%]"
1,CCNC(=S)N(CCCO)Cc1cc2cc3c(cc2[nH]c1=O)OCCO3,19.1
2,O/N=C\c1cccn1-c1ccc(Br)cc1,-0.768
3,CC(C)CCN1CCN(Cc2ccc(N3CCNC3=O)cc2)CC1CCO (stereo not drawn),-20.1
4,Cc1ccc2c(C(=O)CN3CCCCC3CCO)c(C)[nH]c2c1 (stereo not drawn),-25.9
5,O=[N+]([O-])c1ccc(N=Cc2c(O)ccc3ccccc23)cc1,5.58
6,N#Cc1c(-c2ccccc2)c(C#N)c2nc3ccccc3n2c1N,8.92
7,Cc1cccc(NC(=O)[C@H](Cc2ccccc2)NC(=O)[C@@H]2Cc3ccccc3CN2)c1,-0.0161
8,Cc1cc([N+](=O)[O-])c(C)cc1-c1ccc(/C=N/NC(=O)c2cccnc2)o1,-0.453
9,Cc1ccc(CNC(=O)c2ccccc2NS(=O)(=O)c2ccc(Cl)nc2)cc1,12.6
10,CSCCC(=O)N1CC[C@@H](N2CCN(c3ccccc3F)CC2)[C@H](O)C1,-6.63
11,CCCCn1c(N)c(N(CCOC)C(=O)c2ccc(N3C(=O)CCC3=O)cc2)c(=O)[nH]c1=O,8.25
12,O=C(NC(=S)NCC1COc2ccccc2O1)c1ccccc1 (stereo not drawn),-19.5
13,Cn1c(-c2ccccc2F)cc2onc(-c3ccccc3)c2c1=O,-2.91
14,COc1ccc(-c2noc(-c3ccccc3C(=O)N3CCOCC3)n2)cc1,-14
15,COC(=O)CCCC(=O)N1CCC(CCC(=O)NCc2ccc(F)cc2)CC1,-24
16,Cc1ccc(C(=O)N2C(=O)c3cccc(N)c3C2=O)o1,15.4
17,COCCn1c(SCC(=O)NCc2ccc(OC)c(OC)c2)nc2ccccc21,16.2
18,COc1ccc(N2CCN(Cc3nc4ccccc4[nH]3)CC2)cc1,1.56
19,O=c1cc([O-])n(C2CCCCCC2)c(=O)[nH]1.[NH4+],7.16
20,CCn1ncc([N+](=O)[O-])c1C(=O)Nc1nc2cccc(C)c2s1,0.94
21,NNC(=O)CN1C(=O)Nc2ccc(Br)cc2C1c1ccccc1 (stereo not drawn),5.62
22,CCOC(=O)N1CCN(Cc2oc(CO)cc(=O)c2O)CC1,14.7
23,CCOC(=O)c1nn(-c2ccc(C)cc2)c(=O)cc1OCC(=O)Nc1ccc(OC)cc1,4.25

row,SMILES,"hERG current change (%, negative = inhibition) at 10uM [%]"
1,Cc1ccc(NC(=O)CC(=O)Nc2ccc(C)cc2)cc1,25.8
2,CCCCCCCCCCCCC(=O)CCCCC(=O)O,-2.67
3,COc1ccccc1N1CCN(C2CCN(C(=O)COc3ccccc3)CC2)CC1,-25.4
4,COc1cccc(CC2(CO)CCN(Cc3ccc4cccc(F)c4n3)CC2)c1,-64.4
5,COC(=O)c1[nH]c2ccccc2c1NC(=O)CN1CCCCCC1,-21.5
6,CC1(C(=O)O)CCC(C(=O)N2CCOCC2)C1(C)C (stereo not drawn),6.48
7,CCc1nnc(NC(=O)c2cccs2)s1,9.54
8,CCOCCCNC(=O)CNC(=S)N(Cc1ccccc1F)C1CCCCC1,-10.8
9,COc1ccc(OC)c(NC(=O)Cc2nn(C)c(=O)c3ccccc23)c1,3.73
10,CC(C)(C)OC(=O)N/N=C\c1ccc([N+](=O)[O-])s1,-0.286
11,O=C(O)CCSc1ccc2ccccc2n1,0.579
12,COC(=O)c1c(NC(=O)CN(C)CC(=O)Nc2ccc(C)cc2)sc2c1CCC(C)C2 (stereo not drawn),-26.7
13,O=C1CC(c2ccccc2)CN1S(=O)(=O)c1ccccc1 (stereo not drawn),-20.1
14,COC(=O)/C=C1/C(=O)N/C(=N\c2nc(C)cc(C)n2)N1c1ccc(OC)cc1,9.17
15,COC(=O)CSCC(=O)Nc1cc2c(cc1C(C)=O)OCO2,10.2
16,COc1ccc2[nH]c(=O)c(COC(=O)c3cccs3)cc2c1,-4.96
17,CCOc1cccc(C(=O)Nc2ccc(NC(=O)c3cc4ccccc4o3)c(OC)c2)c1,20.5
18,Cc1ccc2nsnc2c1S(=O)(=O)N1CCN(C(=O)C2CCCO2)CC1 (stereo not drawn),2.61
19,O=C(NCc1ccccc1Cl)c1ccc(NC2=NC3CS(=O)(=O)CC3S2)cc1 (stereo not drawn),-6.66
20,COc1ccccc1CC(=O)NC(=O)c1ccccc1O,44.3
21,COc1cc(/C=C/C(=O)O)cc(S(=O)(=O)NCc2ccco2)c1OC,12.5
22,O=C1C(=O)c2ccccc2C([O-])=C1[n+]1ccccc1,-0.885

# — publication PMC4336329 (PLoS ONE, 2015)
